# This is one part of the list. Most values come without repeats; read them as rough.
# Assays:
# Experiment in all cases: cell count relative to DMSO control; melanoma cells; higher = more viable cells
# Conditions in all cases: library dose: low library concentration; 72 h
# [1] = system: WM115
# [2] = system: WM1716
# [3] = system: WM1745
# [4] = system: WM3526
# [5] = system: WM3619
# [6] = system: WM451Lu
# 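Note: cell number obtained by counting DAPI-stained nuclei in high-throughput microscope images with image analysis software, screen run in 1,536-well plates.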
SMILES,cell count [1],cell count [2],cell count [3],cell count [4],cell count [5],cell count [6]
"Nc1cccc2c1CN(C1CCC(=O)NC1=O)C2=O (configuration not stated) [lenalidomide] + O=C(O)c1ccc(-c2c[nH]c3ncc(-c4ccccc4)cc23)cc1C1CCCC1 [GSK650394] (first compound 1 µM, partner dose 0.16 µM)",104%,96.6%,86.1%,88.5%,102%,109%
"Clc1ccc(Nc2nnc(Cc3ccncc3)c3ccccc23)cc1 [vatalanib] + CO[C@@H]1[C@H](N(C)C(=O)c2ccccc2)C[C@H]2O[C@]1(C)n1c3ccccc3c3c4c(c5c6ccccc6n2c5c31)C(=O)NC4 [Midostaurin] (first compound 2 µM, partner dose 0.08 µM)",83%,70.3%,81%,88.6%,63.3%,99.1%
"Cn1c(Nc2ccc(C(F)(F)F)cc2)nc2cc(Oc3ccnc(-c4ncc(C(F)(F)F)[nH]4)c3)ccc21 + CC(C)CCN1c2nc(Nc3cc(F)c(O)c(F)c3)ncc2N(C)C(=O)C1C [BID1870] (first compound 0.08 µM, partner dose 0.2 µM)",52.4%,70%,61.4%,49.3%,28.6%,91.1%
"OCc1c[nH]c2ccccc12 [Indole-3-carbinol] + N#Cc1c(O)c2c(-c3ccc(-c4ccccc4O)cc3)csc2[nH]c1=O [A769662] (first compound 0.8 µM, partner dose 2 µM)",116%,101%,113%,98%,106%,107%
"Nc1cccc2c1CN(C1CCC(=O)NC1=O)C2=O (configuration not stated) [lenalidomide] + CO[C@@H]1[C@H](N(C)C(=O)c2ccccc2)C[C@H]2O[C@]1(C)n1c3ccccc3c3c4c(c5c6ccccc6n2c5c31)C(=O)NC4 [Midostaurin] (first compound 1 µM, partner dose 0.08 µM)",101%,85.1%,102%,94.5%,78.4%,114%
"Clc1ccc(Nc2nnc(Cc3ccncc3)c3ccccc23)cc1 [vatalanib] + CCc1ccc(CCOc2ccc(CC3SC(=O)NC3=O)cc2)nc1 [pioglitazone] (first compound 2 µM, partner dose 2 µM)",92%,97.3%,101%,78.4%,71.7%,82.6%
"Clc1ccc(Nc2nnc(Cc3ccncc3)c3ccccc23)cc1 [vatalanib] + COc1cc(Nc2ncc(F)c(Nc3ccc4c(n3)NC(=O)C(C)(C)O4)n2)cc(OC)c1OC [Tamatinib] (first compound 2 µM, partner dose 0.4 µM)",82.7%,80%,63.9%,71.5%,86.7%,109%
"Nc1cccc2c1CN(C1CCC(=O)NC1=O)C2=O (configuration not stated) [lenalidomide] + O=C(CCCCCCC(=O)Nc1ccccc1)NO [vorinostat] (first compound 1 µM, partner dose 0.08 µM)",105%,102%,109%,80.4%,96.7%,87%
"OCc1c[nH]c2ccccc12 [Indole-3-carbinol] + C[C@@H]1CCN(C(=O)CC#N)C[C@@H]1N(C)c1ncnc2[nH]ccc12 [CP690550] (first compound 0.8 µM, partner dose 1 µM)",98.4%,90.7%,91.7%,104%,88.7%,89.5%
"C#Cc1cccc(Nc2ncnc3cc(OCCOC)c(OCCOC)cc23)c1 [erlotinib] + COc1ccc(COc2ccc(Cc3cnc(N)nc3N)cc2OC)cc1 [GW2580] (first compound 0.8 µM, partner dose 1 µM)",93.9%,105%,77.6%,101%,97.5%,121%
"Nc1cccc2c1CN(C1CCC(=O)NC1=O)C2=O (configuration not stated) [lenalidomide] + COc1cc(Nc2ncc(F)c(Nc3ccc4c(n3)NC(=O)C(C)(C)O4)n2)cc(OC)c1OC [Tamatinib] (first compound 1 µM, partner dose 0.4 µM)",85%,77.1%,58.4%,102%,106%,137%
"C#Cc1cccc(Nc2ncnc3cc(OCCOC)c(OCCOC)cc23)c1 [erlotinib] + COc1cc2ncnc(Nc3ccc(Oc4ccccc4)cc3)c2cc1OC [SrcI1] (first compound 0.8 µM, partner dose 2 µM)",94.5%,108%,69.2%,84.5%,104%,129%
